The values below come from PubChem BioAssay (NCI).

What all share (assay): inhibition of tumour cell growth, NCI panel, 48 h
In assay [1] the test system is BT-549 breast.
Assay [2] concerns DU-145 prostate.
The test system of assay [3] is HS 578T breast.
The test system of assay [4] is M14 melanoma.
Assay [5] concerns MDA-MB-231 breast.
In assay [6] the test system is MDA-MB-435.
Assay [7] relates to PC-3 prostate.
The test system of assay [8] is SK-MEL-5 melanoma.

Structures are written as SMILES. Several values for one entry are separate records, joined by “and”; a condition that tells them apart may be missing. Identical values can stand only once.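 Following 48 hours of exposure in 96-well plates, responses at five concentrations were used to interpolate endpoints linearly. At the GI50, growth is halved. TGI is the concentration that stops growth completely.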

In the case of `CN[C@H]1C[C@@H]2O[C@@](C)([C@H]1OC)n1c3ccccc3c3c4c(c5c6ccccc6n2c5c31)C(=O)NC4`, the GI50 was 6.86 nM in assay [1]; 1.54 nM in assay [2]; 0.607 nM in assay [3]; 6.47 nM in assay [4]; 0.897 nM in assay [5]; 25 nM in assay [6]. Moreover, the GI50 is 3.96 nM in assay [7] and 12.8 nM in assay [8]. Besides, the TGI in assay [1] stood at 84.2 nM; in assay [2], 415 nM; in assay [3], 134 nM; in assay [4] it was 191 nM; in assay [5], 239 nM; in assay [6] it was 279 nM. The TGI in assay [8] is 214 nM and 164 nM and 125 nM.
